The source of these data is the supplement of paper PMC7826260.

The other results are listed elsewhere or left out. One pool of 16,384 single-stranded DNAs met each Rep nickase domain in vitro (1 h at 37 °C, 3 µM enzyme); the outer parts of the 90-letter strands are left off. Numbers give uncut DNA relative to the enzyme-free pool, as log2; strong cutting gives strongly negative numbers. There is no active / inactive call. Reads are scaled to the total; values above 0 arise when much of the pool is cut.

The subject of this assay is T1, Rep nickase domain of tomato golden mosaic virus.
T1 sequence (Rep 1-124, printed without the tag): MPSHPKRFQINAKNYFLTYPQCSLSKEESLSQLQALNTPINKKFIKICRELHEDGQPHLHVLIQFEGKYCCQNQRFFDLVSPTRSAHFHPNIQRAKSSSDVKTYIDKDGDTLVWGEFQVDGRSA
Nature of the assay: uncleaved DNA left, log2 of reads against the no-enzyme library (log2 ratio); higher = less cleavage (more negative = more Rep cleavage of the k-mer); sequences stand for … in CTCGTCCG…ACCGGAGA
The protocol: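 A pool of 90-nt single-stranded DNAs with seven random bases just before the constant AC of the nick site (name = the seven bases) was cut by 3 µM recombinant His6-SUMO-tagged Rep nickase domain (300 nM DNA, 50 mM HEPES pH 8.0, 50 mM NaCl, 1 mM MnCl2, 1 h, 37 °C, three replicates). Uncut DNA was amplified and sequenced.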
On to AATGTTA, for which the “uncleaved DNA left (log2)” value was 0.0369.
In the case of TTCGATA it was 0.039; in that of GCGCATG, -0.0324; in that of GGGCCCC, 0.0713.
Consider AGTTAAA, for which the “uncleaved DNA left (log2)” value amounted to 0.126.
On to TACGTCG, for which the “uncleaved DNA left (log2)” value is -0.0289.
GCAGTCC: the “uncleaved DNA left (log2)” value was -0.0797.
Next, TAGGTCA: 0.0855; GCGACAT: -0.0629; TTGCCGT: -0.275.
Turning to ACAGTTG, the “uncleaved DNA left (log2)” value came to 0.00657.
Next, GAGTAAG: 0.093; ATTTGGC: -0.12; CGCTATC: -0.0995.
With CGAGAGC, the “uncleaved DNA left (log2)” value was 0.151.
In the case of TAAGTCG it was -0.138; in that of AGACTAG, 0.0056.
In the case of GAACGTG it was -0.0354.
Take GCCAGGT: the “uncleaved DNA left (log2)” value is -0.00456.
Next, ACTCGTC: -0.1; TGCTGTT: -0.062; ATTCCAA: -0.0899.
CTAAACG: the “uncleaved DNA left (log2)” value is -0.102.
Take GAGAGCC: the “uncleaved DNA left (log2)” value was 0.054.
In the case of GTTCACG, the “uncleaved DNA left (log2)” value was found to be 0.0144.
For AACGTAT, the “uncleaved DNA left (log2)” value was -0.0384.
As to TCTAGTG, the “uncleaved DNA left (log2)” value was 0.0861.
Regarding AGCAATT, the “uncleaved DNA left (log2)” value came to 0.0314.
In the case of TTAGTAA, the “uncleaved DNA left (log2)” value was -0.095.
Turning to ATCGAAG, the “uncleaved DNA left (log2)” value came to 0.0455.
Next, TAAGATG: 0.268.
On to GCCCACT, for which the “uncleaved DNA left (log2)” value is -0.074.
Next, TAACAAA: 0.0509.
Turning to TATGTAA, the “uncleaved DNA left (log2)” value came out at 0.0193.
GATCTGT: the “uncleaved DNA left (log2)” value worked out at 0.0849.
Regarding GCAAGAT, the “uncleaved DNA left (log2)” value came out at 0.137.
Next, TGCAGCG: -0.124; AAAACAA: 0.00897; TGGGACG: 0.0484.
Take CCAACCG: the “uncleaved DNA left (log2)” value worked out at 0.00871.
